Reference: publication PMC4336329 (PLoS ONE, 2015)
Hit rate of the full screen: of about 310,000 compounds, about 2,200 (0.71%) showed an effect of 50% or more. The effect is printed as a negative number. The list shows a part of the results.

These compounds were tested against human ether-à-go-go-related gene (hERG) potassium channel (human, UniProt Q12809) (assay: primary screen, population patch clamp on CHO cells stably expressing hERG).
Chain of human ether-à-go-go-related gene (hERG) potassium channel (Q12809 whole entry, looked up): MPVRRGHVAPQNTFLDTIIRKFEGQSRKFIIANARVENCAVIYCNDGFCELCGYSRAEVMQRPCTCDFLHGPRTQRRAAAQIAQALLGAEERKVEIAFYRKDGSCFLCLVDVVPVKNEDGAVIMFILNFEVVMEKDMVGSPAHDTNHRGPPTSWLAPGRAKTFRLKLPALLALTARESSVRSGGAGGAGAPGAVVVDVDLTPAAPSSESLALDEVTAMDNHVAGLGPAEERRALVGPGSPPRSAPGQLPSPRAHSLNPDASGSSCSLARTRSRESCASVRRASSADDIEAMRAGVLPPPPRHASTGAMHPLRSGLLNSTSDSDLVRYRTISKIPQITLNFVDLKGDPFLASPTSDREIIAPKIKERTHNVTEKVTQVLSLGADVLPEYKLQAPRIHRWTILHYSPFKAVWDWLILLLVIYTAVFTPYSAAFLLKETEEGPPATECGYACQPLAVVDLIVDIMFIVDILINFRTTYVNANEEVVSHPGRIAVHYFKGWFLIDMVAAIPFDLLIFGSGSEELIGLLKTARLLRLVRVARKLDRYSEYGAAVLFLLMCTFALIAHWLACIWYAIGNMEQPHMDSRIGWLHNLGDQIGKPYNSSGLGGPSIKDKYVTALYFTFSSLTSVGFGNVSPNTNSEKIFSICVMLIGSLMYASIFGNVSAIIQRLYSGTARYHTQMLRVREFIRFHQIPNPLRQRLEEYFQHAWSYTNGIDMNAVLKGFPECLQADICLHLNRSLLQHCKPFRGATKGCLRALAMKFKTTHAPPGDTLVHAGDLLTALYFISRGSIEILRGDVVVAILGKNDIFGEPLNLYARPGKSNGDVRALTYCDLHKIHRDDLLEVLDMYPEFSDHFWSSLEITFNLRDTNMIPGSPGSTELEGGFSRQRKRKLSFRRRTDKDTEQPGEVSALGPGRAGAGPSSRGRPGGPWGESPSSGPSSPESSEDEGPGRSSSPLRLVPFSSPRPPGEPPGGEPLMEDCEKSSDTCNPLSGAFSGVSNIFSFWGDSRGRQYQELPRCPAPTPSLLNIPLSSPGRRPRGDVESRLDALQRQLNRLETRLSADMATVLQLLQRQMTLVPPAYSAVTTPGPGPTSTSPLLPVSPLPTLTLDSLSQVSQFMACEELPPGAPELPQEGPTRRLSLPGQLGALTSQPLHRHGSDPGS
O=c1c(-c2ccc(Br)cc2)coc2c(CN3CCOCC3)c(O)ccc12 was tested, and the “hERG current change (%, negative = inhibition) at 1uM” value was -12.4%.
For COc1ccccc1C(NC(C)=O)c1c(O)ccc2ccc(O)cc12 (stereo not drawn), the “hERG current change (%, negative = inhibition) at 1uM” value was 7.65%.
For O=C(CSc1cn(Cc2ccccc2)c2ccccc12)NCc1ccc(F)cc1, the “hERG current change (%, negative = inhibition) at 1uM” value was 13.7%.
CCOc1ccc(CCNC(=O)COC(=O)c2cccc(N(C)C)c2)cc1OCC was tested, and the “hERG current change (%, negative = inhibition) at 1uM” value was 8.94%.
For O=C(CCN1C(=O)/C(=C/c2ccc(F)cc2)SC1=S)NCCc1cnc[nH]1, the “hERG current change (%, negative = inhibition) at 1uM” value was 8.54%.
For CC(C)(C)[C@H]1CCC(=O)N([C@H](CN=[N+]=[N-])Cc2ccccc2)CC1, the “hERG current change (%, negative = inhibition) at 1uM” value was 5.7%.
Cc1ccc2nc(NC(=O)c3ccc(N4C(=O)CCC4=O)cc3)sc2c1 was tested, and the “hERG current change (%, negative = inhibition) at 1uM” value was 17.4%.
Cc1cccc(C)c1NC(=O)CNC(=O)Cc1ccccc1[N+](=O)[O-] was tested, and the “hERG current change (%, negative = inhibition) at 1uM” value was 20.5%.
In the case of Cc1nn2c(-c3ccc(S(=O)(=O)N4CCN(C)CC4)o3)nnc2c2ccccc12, the “hERG current change (%, negative = inhibition) at 1uM” value is reported as 11.9%.
Cc1ccc(C)c(NS(=O)(=O)c2cc3c4c(c2)CC(=O)N4CCC3)c1 was tested, and the “hERG current change (%, negative = inhibition) at 1uM” value was 13.6%.
For Cc1ccc(S(=O)(=O)N2CCOCC2)cc1C(=O)N1CC(C)OC(C)C1 (stereo not drawn), the “hERG current change (%, negative = inhibition) at 1uM” value was 6.53%.
With CCCCCC(=O)Nc1ccc(N2CCN(CC)CC2)c(Cl)c1 the “hERG current change (%, negative = inhibition) at 1uM” value was -55.6%.
CCCN1CCN(C(=S)Nc2ccc([N+](=O)[O-])cc2)CC1 was tested, and the “hERG current change (%, negative = inhibition) at 1uM” value was -11%.
For Cc1cc(C)cc(C(=O)/C=C2\NC(=O)CS2)c1, the “hERG current change (%, negative = inhibition) at 1uM” value was -0.786%.
In the case of CCN1CCCC1CNC(=O)CSCc1nc(-c2ccccc2C)oc1C (stereo not drawn), the “hERG current change (%, negative = inhibition) at 1uM” value is reported as -4.1%.
With COc1ccc(N2C(=O)CC(Cc3ccccc3)C2=O)cc1 (stereo not drawn) the “hERG current change (%, negative = inhibition) at 1uM” value was 20.4%.
O=C(C1CCCCC1)N1CCN=C1SCc1cccnc1 was tested, and the “hERG current change (%, negative = inhibition) at 1uM” value was 2.4%.
In the case of Cc1cc(C2C(=O)c3ccccc3C2=O)c(C)c(C)c1C, the “hERG current change (%, negative = inhibition) at 1uM” value is reported as 1.32%.
In the case of C=CCn1c(COc2ccccc2)nnc1SCC(=O)Nc1ccc2c(c1)OCCO2, the “hERG current change (%, negative = inhibition) at 1uM” value is reported as 7.66%.
For O=C(CNS(=O)(=O)c1ccccc1)NCC(=O)OCc1ccccc1F, the “hERG current change (%, negative = inhibition) at 1uM” value was 9.02%.
For CC1(OC(=O)CCc2ccccc2)C(=O)C=C2C=C3CCCN3C=C2C1=O (stereo not drawn), the “hERG current change (%, negative = inhibition) at 1uM” value was 5.15%.
COc1ccc(C(CNC(=O)c2ccc(OCc3ccccc3)cc2)N2CCOCC2)cc1 (stereo not drawn) was tested, and the “hERG current change (%, negative = inhibition) at 1uM” value was 3.14%.
With COC(=O)C1=CN(C(C)C)C=C(C(=O)OC)C1c1cc2c(cc1Br)OCO2 the “hERG current change (%, negative = inhibition) at 1uM” value was 7.11%.
With Cc1ccc(S(=O)(=O)N(C)CCCC(=O)Nc2ccncc2)cc1 the “hERG current change (%, negative = inhibition) at 1uM” value was -21.6%.
